Experimental data from paper PMC9911399, “Two distinct binding modes provide the RNA-binding protein RbFox with extraordinary sequence specificity”.
Substitutions are numbered along the chain they refer to; changes in the protein carry UniProt numbers. This is one part of the list.

T1: RBFOX1 RRM (Homo sapiens, UniProt Q9NWB1 109-208)
T1 sequence: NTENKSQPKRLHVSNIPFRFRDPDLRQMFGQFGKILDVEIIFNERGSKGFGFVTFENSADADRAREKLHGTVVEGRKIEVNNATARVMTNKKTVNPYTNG

B1: GGCUUCA (DNA:RNA)
RNA: GGGAGACCGGAAUUCAGAUUGUCCGGCUUCAUUAAAUCCCGUCGUAGCCACCA
DNA 1: CAATCTGAATTCCGGTCTCCC
DNA 2: TGGTGGCTACGACGGGATT
B2: UGACGGG (DNA:RNA)
RNA: B1 RNA with G25U, C27A, U28C, U29G, C30G, A31G
DNA 1: CAATCTGAATTCCGGTCTCCC
DNA 2: TGGTGGCTACGACGGGATT
B3: GCGUGGU (DNA:RNA)
RNA: B1 RNA with G26C, C27G, U29G, C30G, A31U
DNA 1: CAATCTGAATTCCGGTCTCCC
DNA 2: TGGTGGCTACGACGGGATT
B4: UACCAAC (DNA:RNA)
RNA: B1 RNA with G25U, G26A, U28C, U29A, C30A, A31C
DNA 1: CAATCTGAATTCCGGTCTCCC
DNA 2: TGGTGGCTACGACGGGATT
B5: CUUUCUC (DNA:RNA)
RNA: B1 RNA with G25C, G26U, C27U, U29C, C30U, A31C
DNA 1: CAATCTGAATTCCGGTCTCCC
DNA 2: TGGTGGCTACGACGGGATT
B6: GAUCUUA (DNA:RNA)
RNA: B1 RNA with G26A, C27U, U28C, C30U
DNA 1: CAATCTGAATTCCGGTCTCCC
DNA 2: TGGTGGCTACGACGGGATT
B7: UAACCUC (DNA:RNA)
RNA: GGGAGACCGGAAUUCAGAUUGUCCUAACCUCUUAAAUCCCGUCGUAGCCACCA
DNA 1: CAATCTGAATTCCGGTCTCCC
DNA 2: TGGTGGCTACGACGGGATT
B8: AAACUAU (DNA:RNA)
RNA: B7 RNA with U25A, C29U, U30A, C31U
DNA 1: CAATCTGAATTCCGGTCTCCC
DNA 2: TGGTGGCTACGACGGGATT
B9: UAGCGUA (DNA:RNA)
RNA: B7 RNA with A27G, C29G, C31A
DNA 1: CAATCTGAATTCCGGTCTCCC
DNA 2: TGGTGGCTACGACGGGATT
B10: CACCGAA (DNA:RNA)
RNA: B1 RNA with G25C, G26A, U28C, U29G, C30A
DNA 1: CAATCTGAATTCCGGTCTCCC
DNA 2: TGGTGGCTACGACGGGATT
B11: CAGUGUG (DNA:RNA)
RNA: B7 RNA with U25C, A27G, C28U, C29G, C31G
DNA 1: CAATCTGAATTCCGGTCTCCC
DNA 2: TGGTGGCTACGACGGGATT
B12: UCUAGGC (DNA:RNA)
RNA: B7 RNA with A26C, A27U, C28A, C29G, U30G
DNA 1: CAATCTGAATTCCGGTCTCCC
DNA 2: TGGTGGCTACGACGGGATT
B13: CCGUAAC (DNA:RNA)
RNA: B1 RNA with G25C, G26C, C27G, U29A, C30A, A31C
DNA 1: CAATCTGAATTCCGGTCTCCC
DNA 2: TGGTGGCTACGACGGGATT
B14: AUGAAUU (DNA:RNA)
RNA: B7 RNA with U25A, A26U, A27G, C28A, C29A, C31U
DNA 1: CAATCTGAATTCCGGTCTCCC
DNA 2: TGGTGGCTACGACGGGATT
B15: GCGAUAU (DNA:RNA)
RNA: B1 RNA with G26C, C27G, U28A, C30A, A31U
DNA 1: CAATCTGAATTCCGGTCTCCC
DNA 2: TGGTGGCTACGACGGGATT
B16: UAGUCCG (DNA:RNA)
RNA: B7 RNA with A27G, C28U, U30C, C31G
DNA 1: CAATCTGAATTCCGGTCTCCC
DNA 2: TGGTGGCTACGACGGGATT
B17: UAACGAG (DNA:RNA)
RNA: B7 RNA with C29G, U30A, C31G
DNA 1: CAATCTGAATTCCGGTCTCCC
DNA 2: TGGTGGCTACGACGGGATT
B18: UCUCCAU (DNA:RNA)
RNA: B7 RNA with A26C, A27U, U30A, C31U
DNA 1: CAATCTGAATTCCGGTCTCCC
DNA 2: TGGTGGCTACGACGGGATT
B19: AACUCAU (DNA:RNA)
RNA: B1 RNA with G25A, G26A, U29C, C30A, A31U
DNA 1: CAATCTGAATTCCGGTCTCCC
DNA 2: TGGTGGCTACGACGGGATT
B20: CCGAAUA (DNA:RNA)
RNA: B1 RNA with G25C, G26C, C27G, U28A, U29A, C30U
DNA 1: CAATCTGAATTCCGGTCTCCC
DNA 2: TGGTGGCTACGACGGGATT

Each binder was assayed against T1, RBFOX1 RRM (assay: EMSA; HiTS-Eq, 1 nM pool, 10 min; buffer printed only for the single-RNA assays: 10 mM Tris pH 7.5, 150 mM NaCl, 3.4 mM EDTA, 0.001% NP-40, 30 C). Conditions: tags: His6 N-terminal (pET28a); label: 5' 32P.
Summary of the method: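 Relative association constants, normalised to the cognate motif, were derived by comparing read counts of each RNA species with those of the control reaction. The RNA sequenced was the free fraction, separated by 8% native PAGE after a 10 min equilibration in 50 µL of 1 nM 5′-radiolabelled RNA (7 randomized nucleotides) with increasing concentrations of purified wild-type or mutant RbFox RRM.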

B1 was tested. Which binding signal did it give?
Its binding signal is 0.00605 KA relative to UGCAUGU.

Which binding signal does the source give for B2 here?
The binding signal was 0.0111 KA relative to UGCAUGU.

With B3 as the binder, how does the binding signal read?
Its binding signal is 0.0238 KA relative to UGCAUGU.

How did the binding signal turn out when B4 was run?
Its binding signal is 0.0015 KA relative to UGCAUGU.

For B5, which binding signal is on record?
Its binding signal is 0.0114 KA relative to UGCAUGU.

B6 was tested. Which binding signal did it give?
Its binding signal is 0.00791 KA relative to UGCAUGU.

With B7 as the binder, how does the binding signal read?
The binding signal was 0.00423 KA relative to UGCAUGU.

With B8 as the binder, how does the binding signal read?
Its binding signal is 0.00187 KA relative to UGCAUGU.

For B9, which binding signal is on record?
Its binding signal is 0.0113 KA relative to UGCAUGU.

How did the binding signal turn out when B10 was run?
Its binding signal is 0.00169 KA relative to UGCAUGU.

How did the binding signal turn out when B11 was run?
The binding signal was 0.0134 KA relative to UGCAUGU.

For B12, which binding signal is on record?
Its binding signal is 0.00923 KA relative to UGCAUGU.

B13 was tested. Which binding signal did it give?
Its binding signal is 0.00745 KA relative to UGCAUGU.

Which binding signal does the source give for B14 here?
The binding signal was 0.0047 KA relative to UGCAUGU.

B15 was tested. Which binding signal did it give?
The binding signal was 0.00908 KA relative to UGCAUGU.

How did the binding signal turn out when B16 was run?
The binding signal was 0.00983 KA relative to UGCAUGU.

With B17 as the binder, how does the binding signal read?
Its binding signal is 0.00761 KA relative to UGCAUGU.

Which binding signal does the source give for B18 here?
Its binding signal is 0.00523 KA relative to UGCAUGU.

B19 was tested. Which binding signal did it give?
The binding signal was 0.000205 KA relative to UGCAUGU.

Which binding signal does the source give for B20 here?
The binding signal was 0.00221 KA relative to UGCAUGU.
